# Data reported in the supplement of paper PMC8728848.
# Some of the results follow.
# Key:
# Assay in all cases: glycan array binding signal (z-score within array); higher = stronger binding
# Settings in all cases: glycan notation: IUPAC condensed, linker removed
# GalNAc(b1-4)GlcNAc = biological target: GalNAc(b1-4)GlcNAc
# In short: (§1)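 Arrays were curated from the Consortium for Functional Glycomics database, 3228 in total, and kept only where the protein sequence was available. Binding is expressed as a within-array Z-score. This score was averaged across arrays of the same protein sequence at different concentrations or buffers and across linkers, and negative values can be read as non-binding.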
# [1] = biological target: GalNAc(b1-4)GlcNAc(b1-2)Man
# In short: as §1
# [2] = biological target: GalNAc(b1-4)GlcNAc(b1-2)Man(a1-3)[GalNAc(b1-4)GlcNAc(b1-2)Man(a1-6)]Man(b1-4)GlcNAc(b1-4)GlcNAc
# In short: as §1
# [3] = biological target: GalNAc(b1-4)GlcNAc(b1-3)GalNAc(b1-4)GlcNAc
# In short: as §1
# GalNAc(b1-4)GlcNAc6S = biological target: GalNAc(b1-4)GlcNAc6S
# In short: as §1
# GalNAc(b1-6)GalNAc = biological target: GalNAc(b1-6)GalNAc
# In short: as §1
# GalNAc3S(b1-4)GlcNAc = biological target: GalNAc3S(b1-4)GlcNAc
# In short: as §1
# GalNAc3S(b1-4)GlcNAc3S = biological target: GalNAc3S(b1-4)GlcNAc3S
# In short: as §1
# [4] = biological target: GalNAc3S(b1-4)[Fuc(a1-3)]GlcNAc
# In short: as §1
# GalNAc4S6S(b1-4)GlcNAc = biological target: GalNAc4S6S(b1-4)GlcNAc
# In short: as §1
# GalNAc6S(b1-4)GlcNAc = biological target: GalNAc6S(b1-4)GlcNAc
# In short: as §1
# Glc(a1-4)Glc = biological target: Glc(a1-4)Glc
# In short: as §1
# [5] = biological target: Glc(a1-4)Glc(a1-4)Glc(a1-4)Glc
# In short: as §1
# Glc(a1-6)Glc(a1-6)Glc = biological target: Glc(a1-6)Glc(a1-6)Glc
# In short: as §1
# [6] = biological target: Glc(a1-6)Glc(a1-6)Glc(a1-6)Glc
# In short: as §1
# Glc(b1-4)Glc = biological target: Glc(b1-4)Glc
# In short: as §1
# Glc(b1-6)Glc = biological target: Glc(b1-6)Glc
# In short: as §1
# GlcA(b1-3)Gal = biological target: GlcA(b1-3)Gal
# In short: as §1
# GlcA(b1-3)GlcNAc = biological target: GlcA(b1-3)GlcNAc
# In short: as §1
# GlcA(b1-6)Gal = biological target: GlcA(b1-6)Gal
# In short: as §1
# [7] = biological target: GlcA3S(b1-3)Gal(b1-4)GlcNAc(b1-2)Man
# In short: as §1
# [8] = biological target: GlcA3S(b1-3)Gal(b1-4)GlcNAc(b1-3)Gal(b1-4)Glc
# In short: as §1
# [9] = biological target: GlcNAc(a1-3)Gal(b1-4)GlcNAc
# In short: as §1
# [10] = biological target: GlcNAc(a1-4)Gal(b1-3)GlcNAc
# In short: as §1
# [11] = biological target: GlcNAc(a1-4)Gal(b1-4)GalNAc
# In short: as §1
# [12] = biological target: GlcNAc(a1-4)Gal(b1-4)GlcNAc
# In short: as §1
# [13] = biological target: GlcNAc(a1-4)Gal(b1-4)GlcNAc(b1-3)Gal(b1-4)Glc
# In short: as §1
# [14] = biological target: GlcNAc(a1-4)Gal(b1-4)GlcNAc(b1-3)Gal(b1-4)GlcNAc
# In short: as §1
# [15] = biological target: GlcNAc(a1-4)Gal(b1-4)GlcNAc(b1-3)Gal(b1-4)GlcNAc(b1-3)Gal(b1-4)GlcNAc
# In short: as §1
# [16] = biological target: GlcNAc(a1-4)Gal(b1-4)GlcNAc(b1-3)Gal(b1-4)[Fuc(a1-3)]GlcNAc(b1-3)Gal(b1-4)[Fuc(a1-3)]GlcNAc
# In short: as §1
# [17] = biological target: GlcNAc(a1-6)Gal(b1-4)GlcNAc
# In short: as §1
# [18] = biological target: GlcNAc(b1-2)Gal(b1-3)GalNAc
# In short: as §1
# [19] = biological target: GlcNAc(b1-2)Man(a1-3)[GlcNAc(b1-2)Man(a1-6)]Man(b1-4)GlcNAc(b1-4)GlcNAc
# In short: as §1
# [20] = biological target: GlcNAc(b1-2)Man(a1-3)[GlcNAc(b1-2)Man(a1-6)]Man(b1-4)GlcNAc(b1-4)[Fuc(a1-6)]GlcNAc
# In short: as §1
# [21] = biological target: GlcNAc(b1-2)Man(a1-3)[GlcNAc(b1-4)][GlcNAc(b1-2)Man(a1-6)]Man(b1-4)GlcNAc(b1-4)GlcNAc
# In short: as §1
# [22] = biological target: GlcNAc(b1-2)Man(a1-3)[GlcNAc(b1-4)][GlcNAc(b1-2)Man(a1-6)]Man(b1-4)GlcNAc(b1-4)[Fuc(a1-6)]GlcNAc
# In short: as §1
# [23] = biological target: GlcNAc(b1-2)[GlcNAc(b1-4)]Man(a1-3)[GlcNAc(b1-2)Man(a1-6)]Man(b1-4)GlcNAc(b1-4)GlcNAc
# In short: as §1
# [24] = biological target: GlcNAc(b1-2)[GlcNAc(b1-4)]Man(a1-3)[GlcNAc(b1-4)][GlcNAc(b1-2)Man(a1-6)]Man(b1-4)GlcNAc(b1-4)GlcNAc
# In short: as §1
# [25] = biological target: GlcNAc(b1-2)[GlcNAc(b1-4)]Man(a1-3)[GlcNAc(b1-4)][GlcNAc(b1-2)[GlcNAc(b1-6)]Man(a1-6)]Man(b1-4)GlcNAc(b1-4)GlcNAc
# In short: as §1
# [26] = biological target: GlcNAc(b1-2)[GlcNAc(b1-4)]Man(a1-3)[GlcNAc(b1-4)][GlcNAc(b1-2)[GlcNAc(b1-6)]Man(a1-6)]Man(b1-4)GlcNAc(b1-4)[Fuc(a1-6)]GlcNAc
# In short: as §1
# [27] = biological target: GlcNAc(b1-2)[GlcNAc(b1-6)]Man(a1-6)[GlcNAc(b1-2)Man(a1-3)]Man(b1-4)GlcNAc(b1-4)GlcNAc
# In short: as §1
# [28] = biological target: GlcNAc(b1-2)[GlcNAc(b1-6)]Man(a1-6)[GlcNAc(b1-2)Man(a1-3)]Man(b1-4)GlcNAc(b1-4)[Fuc(a1-6)]GlcNAc
# In short: as §1
# [29] = biological target: GlcNAc(b1-2)[GlcNAc(b1-6)]Man(a1-6)[GlcNAc(b1-4)][GlcNAc(b1-2)Man(a1-3)]Man(b1-4)GlcNAc(b1-4)GlcNAc
# In short: as §1
# GlcNAc(b1-3)Fuc = biological target: GlcNAc(b1-3)Fuc
# In short: as §1
# GlcNAc(b1-3)Gal = biological target: GlcNAc(b1-3)Gal
# In short: as §1
binder,measurement,setting,value
"CFEM-SCL (Saccharomyces cerevisiae), O13547 (protein) MRATTLLSSVVSLALLSKEVLATPPACLLACVAQVGKSSSTCDSLNQVTCYCEHENSAVKKCLDSICPNNDADAAYSAFKSSCSEQNASLGD",glycan array binding signal (z-score),GalNAc(b1-4)GlcNAc,0.047
same,glycan array binding signal (z-score),[1],-0.281
same,glycan array binding signal (z-score),[2],-0.012
same,glycan array binding signal (z-score),[3],-0.383
same,glycan array binding signal (z-score),GalNAc(b1-4)GlcNAc6S,-0.279
same,glycan array binding signal (z-score),GalNAc(b1-6)GalNAc,-0.254
same,glycan array binding signal (z-score),GalNAc3S(b1-4)GlcNAc,0.022
same,glycan array binding signal (z-score),GalNAc3S(b1-4)GlcNAc3S,-0.259
same,glycan array binding signal (z-score),[4],-0.178
same,glycan array binding signal (z-score),GalNAc4S6S(b1-4)GlcNAc,-0.241
same,glycan array binding signal (z-score),GalNAc6S(b1-4)GlcNAc,-0.324
same,glycan array binding signal (z-score),Glc(a1-4)Glc,-0.252
same,glycan array binding signal (z-score),[5],-0.317
same,glycan array binding signal (z-score),Glc(a1-6)Glc(a1-6)Glc,-0.164
same,glycan array binding signal (z-score),[6],-0.331
same,glycan array binding signal (z-score),Glc(b1-4)Glc,-0.221
same,glycan array binding signal (z-score),Glc(b1-6)Glc,-0.291
same,glycan array binding signal (z-score),GlcA(b1-3)Gal,-0.286
same,glycan array binding signal (z-score),GlcA(b1-3)GlcNAc,-0.277
same,glycan array binding signal (z-score),GlcA(b1-6)Gal,1.15
same,glycan array binding signal (z-score),[7],-0.222
same,glycan array binding signal (z-score),[8],-0.231
same,glycan array binding signal (z-score),[9],-0.281
same,glycan array binding signal (z-score),[10],-0.301
same,glycan array binding signal (z-score),[11],-0.226
same,glycan array binding signal (z-score),[12],-0.226
same,glycan array binding signal (z-score),[13],-0.144
same,glycan array binding signal (z-score),[14],-0.225
same,glycan array binding signal (z-score),[15],-0.258
same,glycan array binding signal (z-score),[16],-0.083
same,glycan array binding signal (z-score),[17],0.97
same,glycan array binding signal (z-score),[18],-0.299
same,glycan array binding signal (z-score),[19],-0.298
same,glycan array binding signal (z-score),[20],-0.124
same,glycan array binding signal (z-score),[21],-0.342
same,glycan array binding signal (z-score),[22],-0.252
same,glycan array binding signal (z-score),[23],-0.322
same,glycan array binding signal (z-score),[24],-0.326
same,glycan array binding signal (z-score),[25],-0.303
same,glycan array binding signal (z-score),[26],-0.292
same,glycan array binding signal (z-score),[27],-0.238
same,glycan array binding signal (z-score),[28],0.017
same,glycan array binding signal (z-score),[29],-0.119
same,glycan array binding signal (z-score),GlcNAc(b1-3)Fuc,-0.246
same,glycan array binding signal (z-score),GlcNAc(b1-3)Gal,-0.178
